According to PMC4336329 (PLoS ONE, 2015):
Among all 310,000 compounds or so, about 14,000 (4.5%) showed an effect of 50% or more. Effects have a minus sign here. The list shows a part of the results.
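Also: peak tail current of the secondary pulse compared with the same well before compound.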

Each compound was assayed against human ether-à-go-go-related gene (hERG) potassium channel (human, UniProt Q12809) (assay: primary screen, population patch clamp on CHO cells stably expressing hERG).
human ether-à-go-go-related gene (hERG) potassium channel, sequence (Q12809 whole entry, looked up): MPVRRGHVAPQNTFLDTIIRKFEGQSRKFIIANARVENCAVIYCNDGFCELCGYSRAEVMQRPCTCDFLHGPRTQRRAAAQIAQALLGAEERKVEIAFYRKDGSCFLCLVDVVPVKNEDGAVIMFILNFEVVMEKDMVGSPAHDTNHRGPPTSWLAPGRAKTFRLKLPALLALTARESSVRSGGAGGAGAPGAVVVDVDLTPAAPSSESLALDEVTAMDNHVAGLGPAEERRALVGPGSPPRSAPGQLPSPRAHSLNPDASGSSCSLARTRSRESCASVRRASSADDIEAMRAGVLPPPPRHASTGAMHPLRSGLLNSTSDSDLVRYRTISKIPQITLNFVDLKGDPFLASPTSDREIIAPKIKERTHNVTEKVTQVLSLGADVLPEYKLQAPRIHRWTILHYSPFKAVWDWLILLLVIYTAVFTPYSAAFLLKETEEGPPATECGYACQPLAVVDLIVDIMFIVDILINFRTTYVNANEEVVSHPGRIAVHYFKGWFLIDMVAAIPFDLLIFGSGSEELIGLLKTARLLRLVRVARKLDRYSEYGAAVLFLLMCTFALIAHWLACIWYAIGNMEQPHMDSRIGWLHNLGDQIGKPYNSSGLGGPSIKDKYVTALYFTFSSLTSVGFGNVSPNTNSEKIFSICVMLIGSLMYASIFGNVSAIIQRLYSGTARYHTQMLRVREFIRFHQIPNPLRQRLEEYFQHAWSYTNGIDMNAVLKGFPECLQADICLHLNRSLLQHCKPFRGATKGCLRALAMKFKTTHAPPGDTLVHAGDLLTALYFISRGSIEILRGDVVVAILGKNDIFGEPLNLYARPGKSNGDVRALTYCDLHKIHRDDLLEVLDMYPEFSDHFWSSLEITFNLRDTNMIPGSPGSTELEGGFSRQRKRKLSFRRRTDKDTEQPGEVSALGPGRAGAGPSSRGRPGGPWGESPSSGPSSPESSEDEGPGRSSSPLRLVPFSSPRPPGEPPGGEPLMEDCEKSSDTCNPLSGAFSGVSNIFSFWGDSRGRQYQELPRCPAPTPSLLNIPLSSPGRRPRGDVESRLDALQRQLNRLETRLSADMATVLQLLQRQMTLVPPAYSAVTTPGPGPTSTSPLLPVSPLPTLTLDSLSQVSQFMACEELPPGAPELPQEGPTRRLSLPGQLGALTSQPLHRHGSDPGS
O=C(NCC1CCCO1)C(=O)N/N=C/c1ccc(OCc2ccccc2Cl)cc1 (stereo not drawn) was tested, and the “hERG current change (%, negative = inhibition) at 10uM” value was 0.8%. In the case of CCN(CC(=O)Nc1c(F)cccc1F)C(=O)Cc1ccc2c(c1)OCCO2, the “hERG current change (%, negative = inhibition) at 10uM” value is reported as -3.07%. In the case of CC(CCc1ccccc1)NC(=S)NC(=O)c1ccco1 (stereo not drawn), the “hERG current change (%, negative = inhibition) at 10uM” value is reported as -19.5%. COc1ccc(S(=O)(=O)Nc2ncccn2)cc1 was tested, and the “hERG current change (%, negative = inhibition) at 10uM” value was 10.7%. COc1ccc(OP(=O)(Nc2ccccc2)Nc2ccccc2)cc1 was tested, and the “hERG current change (%, negative = inhibition) at 10uM” value was -13.8%. For CC(=O)n1cc([C@@H]2C=C(C(=O)Nc3ccccc3)O[C@H](OCc3ccc(CO)cc3)C2)c2ccccc21, the “hERG current change (%, negative = inhibition) at 10uM” value was -29.7%. CSc1ncccc1C(=O)NC1CC(C)(C)Cc2c1cnn2-c1ccccc1C (stereo not drawn) was tested, and the “hERG current change (%, negative = inhibition) at 10uM” value was -7.58%. CN1C=CC2=C(C#N)C(N)C(C#N)(C#N)C(c3ccccc3)C2C1 (stereo not drawn) was tested, and the “hERG current change (%, negative = inhibition) at 10uM” value was 9.49%. With CC(=O)Nc1nc(C)c(-c2nc3ccc([N+](=O)[O-])cc3[nH]2)s1 the “hERG current change (%, negative = inhibition) at 10uM” value was 13.9%. c1ccc2c(CNn3cnnc3)cccc2c1 was tested, and the “hERG current change (%, negative = inhibition) at 10uM” value was 9.16%. In the case of Cc1ccc(NC(=O)CCc2c(C)nn(-c3ccc(N4CCOCC4)nn3)c2C)cc1C, the “hERG current change (%, negative = inhibition) at 10uM” value is reported as 3.81%. For O=c1oc2ccccc2cc1-c1nc2c(s1)CCCC2, the “hERG current change (%, negative = inhibition) at 10uM” value was 4.04%. In the case of CCOC(=O)c1c(C)[nH]c(N=Nc2ccc(C)cc2C)c1C, the “hERG current change (%, negative = inhibition) at 10uM” value is reported as 13.5%. With CC1CCCC(NC(=O)Cn2cc3c(n2)CCCCC3)C1C (stereo not drawn) the “hERG current change (%, negative = inhibition) at 10uM” value was 0.213%. For Cc1cnc(C(=O)N2CCCC(C(=O)c3ccc(C(C)(C)C)cc3)C2)cn1 (stereo not drawn), the “hERG current change (%, negative = inhibition) at 10uM” value was -20.7%. Cc1cccc(N2CCN(c3ccc(C(N)=O)cc3[N+](=O)[O-])CC2)c1C was tested, and the “hERG current change (%, negative = inhibition) at 10uM” value was 21.7%. With COc1ccc2oc(C(=O)OCC(=O)NC(C)(C#N)C3CC3)c(C)c2c1 (stereo not drawn) the “hERG current change (%, negative = inhibition) at 10uM” value was 3.21%. O=C1CCCC2=C1C(c1ccccc1O)C1=C(CCCC1=O)O2 was tested, and the “hERG current change (%, negative = inhibition) at 10uM” value was -5.36%. With Cc1ccc(C(OC(=O)c2ccco2)C(=O)NC2CCCCC2)cc1 (stereo not drawn) the “hERG current change (%, negative = inhibition) at 10uM” value was 12.1%. For O=C1C(Cl)=C(Nc2ccccc2O)C(=O)N1c1ccccc1, the “hERG current change (%, negative = inhibition) at 10uM” value was 0.891%. In the case of NC(=O)CSc1nc(O)cc(=O)n1-c1ccccc1, the “hERG current change (%, negative = inhibition) at 10uM” value is reported as 12.4%. With CC(=O)Nc1cc(C)c2nc(NC(C)=O)sc2c1 the “hERG current change (%, negative = inhibition) at 10uM” value was 14%. In the case of O=C(NCc1cccnc1)/C(=C/c1ccco1)NC(=O)c1ccccc1, the “hERG current change (%, negative = inhibition) at 10uM” value is reported as -58.6%. In the case of Cc1ccc(N=Nc2c(N)nn3c(C)cc(C)nc23)cc1, the “hERG current change (%, negative = inhibition) at 10uM” value is reported as -12.5%. In the case of O=C(Nc1nnc(C2COc3ccccc3O2)o1)c1ccc(F)cc1 (stereo not drawn), the “hERG current change (%, negative = inhibition) at 10uM” value is reported as 10.5%. For Cc1cc(C)c(C#N)c(SCc2ccccc2C(=O)O)n1, the “hERG current change (%, negative = inhibition) at 10uM” value was -0.731%. With CC(=NCC1CCCO1)c1c(O)n(Cc2ccccc2)c(=O)[nH]c1=O (stereo not drawn) the “hERG current change (%, negative = inhibition) at 10uM” value was -17.9%. With N#Cc1nc(COc2ccccc2Cl)oc1NCc1ccco1 the “hERG current change (%, negative = inhibition) at 10uM” value was 3.28%. For Cn1c(=O)c2c(nc3n2CCS3)n(C)c1=O, the “hERG current change (%, negative = inhibition) at 10uM” value was -7.13%. O=c1cc(-c2ccccc2F)oc2ccccc12 was tested, and the “hERG current change (%, negative = inhibition) at 10uM” value was -10.8%. CCCCC(=O)NNC(=S)NC(=O)CCC was tested, and the “hERG current change (%, negative = inhibition) at 10uM” value was 12.4%. For O=C1CSc2ccc(S(=O)(=O)NCc3ccc(Cl)cc3)cc2N1, the “hERG current change (%, negative = inhibition) at 10uM” value was 2.19%. With OC(Cn1cncn1)(c1ccc(F)cc1)c1ccc(Cl)cc1 (stereo not drawn) the “hERG current change (%, negative = inhibition) at 10uM” value was 8.7%. CC(=O)c1ccc([N+](=O)[O-])c(CS(=O)(=O)c2ccccc2)c1 was tested, and the “hERG current change (%, negative = inhibition) at 10uM” value was 18.1%. In the case of O=C(NCc1ccc2c(c1)OCO2)c1c(O)nc2sccn2c1=O, the “hERG current change (%, negative = inhibition) at 10uM” value is reported as -1.82%. CCCc1nc2ccccc2c(C(=O)OCC(=O)Nc2c(C)n(C)n(-c3ccccc3)c2=O)c1CC was tested, and the “hERG current change (%, negative = inhibition) at 10uM” value was 0.724%. In the case of COc1ccc(CN(Cc2ccc(C(=O)O)cc2)C(=S)Nc2cccc(C)c2)cc1OC, the “hERG current change (%, negative = inhibition) at 10uM” value is reported as 19.7%. CCC(OC(=O)c1nsc(Cl)c1Cl)C(=O)NCC1CCCO1 (stereo not drawn) was tested, and the “hERG current change (%, negative = inhibition) at 10uM” value was 5.94%. With COc1ccc(C2CC(c3ccc(Cl)cc3Cl)Nc3nc(N)nn32)cc1 (stereo not drawn) the “hERG current change (%, negative = inhibition) at 10uM” value was -41.3%. In the case of COc1ccc(/C=N/NC(=O)CCc2c(C)n[nH]c2C)cc1OC, the “hERG current change (%, negative = inhibition) at 10uM” value is reported as 18.8%. For CC(=O)[O-].[K+].c1ccc2c(c1)OCCOCCOc1ccccc1OCCOCCO2, the “hERG current change (%, negative = inhibition) at 10uM” value was -74.7%. In the case of COc1ccc(C2OC(=O)CC2C(=O)N2CCN(c3cc(Cl)ccc3C)CC2)cc1OC (stereo not drawn), the “hERG current change (%, negative = inhibition) at 10uM” value is reported as -36%. CCOc1ccc(NC(=O)COC(=O)Cc2ccc(S(=O)(=O)N3CCOCC3)s2)cc1 was tested, and the “hERG current change (%, negative = inhibition) at 10uM” value was -6.18%. With CC(Nc1ccc(Br)cc1)C(=O)N/N=C/c1ccccc1OCc1ccccc1 (stereo not drawn) the “hERG current change (%, negative = inhibition) at 10uM” value was -3.72%. For COc1ccccc1C(=O)NC(CCSC)C(=O)OCC(=O)NC(=O)NCc1ccco1 (stereo not drawn), the “hERG current change (%, negative = inhibition) at 10uM” value was -17.7%. In the case of C=CCn1c(Cc2ccccc2)nc2c(cnn2-c2ccccc2)c1=O, the “hERG current change (%, negative = inhibition) at 10uM” value is reported as -34.8%. In the case of O=C(NCc1ccco1)c1ccc(C(F)(F)F)cc1, the “hERG current change (%, negative = inhibition) at 10uM” value is reported as 5.37%. For CCC1CN(C(=O)Nc2ccc(C)cc2)c2cc(C)ccc2O1 (stereo not drawn), the “hERG current change (%, negative = inhibition) at 10uM” value was 10%. In the case of CC1=C(C(=O)OCc2ccccc2)C(c2ccccc2Cl)NC(=O)N1CCCCCC(=O)O (stereo not drawn), the “hERG current change (%, negative = inhibition) at 10uM” value is reported as -12.4%. For Cc1ccc(S(=O)(=O)N2CCOCC2)cc1NC(=O)CNCc1ccccn1.O=C(O)C(=O)O, the “hERG current change (%, negative = inhibition) at 10uM” value was -3.51%. With COc1ccc(Cl)cc1NC(=O)CN(C)C(=O)C1CCN(C(=O)Nc2ccccc2)CC1 the “hERG current change (%, negative = inhibition) at 10uM” value was -46.9%. For COc1ccc(-c2nc(=S)n3ccsc3n2)cc1OC, the “hERG current change (%, negative = inhibition) at 10uM” value was 11.9%. For Cc1nc2ccc3nc(NC(=O)c4ccco4)sc3c2s1, the “hERG current change (%, negative = inhibition) at 10uM” value was -1.16%. With CCN(CC)S(=O)(=O)c1ccc(C2=NOC3(C2)N(C)c2ccccc2C3(C)C)cc1 (stereo not drawn) the “hERG current change (%, negative = inhibition) at 10uM” value was 8.84%. O=C(Nc1ccc2c(c1)OCCO2)c1cccc(S(=O)(=O)N2CCCCC2)c1 was tested, and the “hERG current change (%, negative = inhibition) at 10uM” value was -25.4%. With Cc1cc(C)c(C#N)c(Sc2ccc(N)cc2)n1 the “hERG current change (%, negative = inhibition) at 10uM” value was -20.4%. With CCOC(=O)N1CCC(c2cc(=O)n(-c3ccccc3)[nH]2)CC1 the “hERG current change (%, negative = inhibition) at 10uM” value was 49.6%.
